Test results published in publication PMC3656144.
These are yes or no findings as the source states them, for the method shown. In cells and extracts the contact can be indirect. Some binding calls cover weakened binding; strength is not graded here. Tags and fused reporters may be left off the sequences shown. Blank lines part the entries; values can stand above or below the binder they belong to.

Tests used:
[1] = target: T1, endogenous CED-6 (C. elegans (endogenous in whole animal lysate)) (UniProt O76337); assay: co-IP; IP of endogenous CED-1 or CED-6 with CED-1C or CED-6 antibody from whole cell lysates of N2 or GFP-fusion-expressing animals (controls: ced-1(e1735), ced-1 RNAi, ced-6 RNAi); blots with CED-1C, CED-6 and GFP antibodies
T1 sequence: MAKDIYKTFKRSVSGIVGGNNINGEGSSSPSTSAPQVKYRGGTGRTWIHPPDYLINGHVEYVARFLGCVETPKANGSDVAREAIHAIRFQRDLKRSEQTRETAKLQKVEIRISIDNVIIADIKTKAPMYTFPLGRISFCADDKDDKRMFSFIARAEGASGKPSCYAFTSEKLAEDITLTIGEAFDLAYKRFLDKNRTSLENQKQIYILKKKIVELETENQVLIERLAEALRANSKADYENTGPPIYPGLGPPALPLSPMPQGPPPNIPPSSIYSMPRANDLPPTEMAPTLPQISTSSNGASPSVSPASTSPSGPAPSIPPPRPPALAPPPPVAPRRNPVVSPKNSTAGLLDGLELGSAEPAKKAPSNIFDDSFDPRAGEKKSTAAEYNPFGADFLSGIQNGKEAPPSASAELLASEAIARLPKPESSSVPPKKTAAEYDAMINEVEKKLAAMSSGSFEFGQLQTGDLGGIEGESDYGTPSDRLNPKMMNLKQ

[2] = target: T2, endogenous CED-1 (C. elegans (endogenous in whole animal lysate)) (UniProt Q9XWD6); assay: as above
T2 sequence: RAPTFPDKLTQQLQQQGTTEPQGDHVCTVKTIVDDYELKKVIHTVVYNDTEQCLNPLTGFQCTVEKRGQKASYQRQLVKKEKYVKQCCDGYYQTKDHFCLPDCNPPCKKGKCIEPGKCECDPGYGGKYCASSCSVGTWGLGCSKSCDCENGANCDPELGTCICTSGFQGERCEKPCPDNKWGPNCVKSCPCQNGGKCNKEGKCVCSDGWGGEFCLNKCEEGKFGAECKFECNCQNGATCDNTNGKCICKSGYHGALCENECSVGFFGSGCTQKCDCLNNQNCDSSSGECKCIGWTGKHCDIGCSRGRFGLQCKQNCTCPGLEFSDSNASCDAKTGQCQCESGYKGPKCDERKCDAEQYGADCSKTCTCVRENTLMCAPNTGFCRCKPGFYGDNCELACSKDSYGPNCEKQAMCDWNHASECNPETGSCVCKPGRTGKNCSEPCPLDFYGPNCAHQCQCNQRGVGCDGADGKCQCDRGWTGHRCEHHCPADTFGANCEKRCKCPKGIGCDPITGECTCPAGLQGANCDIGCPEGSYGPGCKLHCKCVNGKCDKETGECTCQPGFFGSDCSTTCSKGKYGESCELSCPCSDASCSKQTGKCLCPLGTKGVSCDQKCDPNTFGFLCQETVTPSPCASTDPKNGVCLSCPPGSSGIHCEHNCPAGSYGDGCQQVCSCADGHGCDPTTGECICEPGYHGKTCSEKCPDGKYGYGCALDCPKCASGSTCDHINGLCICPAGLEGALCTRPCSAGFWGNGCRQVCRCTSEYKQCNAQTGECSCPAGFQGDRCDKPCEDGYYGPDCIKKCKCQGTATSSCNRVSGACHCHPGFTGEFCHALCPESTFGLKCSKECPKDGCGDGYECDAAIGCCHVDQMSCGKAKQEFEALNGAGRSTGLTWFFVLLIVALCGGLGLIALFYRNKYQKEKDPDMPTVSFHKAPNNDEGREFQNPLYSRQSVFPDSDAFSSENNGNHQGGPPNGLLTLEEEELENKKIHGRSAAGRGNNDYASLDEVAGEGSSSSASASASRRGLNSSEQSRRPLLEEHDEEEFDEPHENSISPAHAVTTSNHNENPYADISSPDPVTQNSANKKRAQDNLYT

[3] = target: T3, GST-fused DYN-1 (C. elegans) (UniProt P39055); assay: pull-down; GST or GST fusion (3 µg) immobilized on glutathione-Sepharose beads, incubated with 35S-labeled in vitro translated protein at 4°C for ≥4 h, washed extensively; autoradiography; only the target purified
T3 sequence: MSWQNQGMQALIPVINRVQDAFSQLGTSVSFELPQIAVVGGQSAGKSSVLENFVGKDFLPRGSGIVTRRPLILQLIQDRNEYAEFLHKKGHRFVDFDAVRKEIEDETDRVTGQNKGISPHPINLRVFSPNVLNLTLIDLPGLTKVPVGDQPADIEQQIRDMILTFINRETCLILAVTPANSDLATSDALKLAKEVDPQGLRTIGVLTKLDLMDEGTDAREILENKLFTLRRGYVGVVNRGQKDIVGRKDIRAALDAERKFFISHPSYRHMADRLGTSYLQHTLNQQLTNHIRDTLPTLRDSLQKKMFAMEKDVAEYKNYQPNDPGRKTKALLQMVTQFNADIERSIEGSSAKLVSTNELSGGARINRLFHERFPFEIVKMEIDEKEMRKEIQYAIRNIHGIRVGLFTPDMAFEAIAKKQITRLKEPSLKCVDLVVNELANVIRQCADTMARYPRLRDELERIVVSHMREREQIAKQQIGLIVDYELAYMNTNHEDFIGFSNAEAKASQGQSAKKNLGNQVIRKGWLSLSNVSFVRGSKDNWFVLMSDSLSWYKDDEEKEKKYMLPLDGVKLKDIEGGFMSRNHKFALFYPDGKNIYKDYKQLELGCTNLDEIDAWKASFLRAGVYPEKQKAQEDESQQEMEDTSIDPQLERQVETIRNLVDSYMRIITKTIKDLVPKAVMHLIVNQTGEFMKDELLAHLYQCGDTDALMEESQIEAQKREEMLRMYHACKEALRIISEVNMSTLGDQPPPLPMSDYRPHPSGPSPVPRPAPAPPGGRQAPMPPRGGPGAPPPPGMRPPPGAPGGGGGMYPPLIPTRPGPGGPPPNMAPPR

[4] = target: T4, GST-fused CED-6 (C. elegans) (UniProt O76337); assay: as above
T4 sequence: T1 sequence

[5] = target: T5, GST-fused LST-4 (C. elegans) (UniProt Q8I4E2); assay: as above
T5 sequence: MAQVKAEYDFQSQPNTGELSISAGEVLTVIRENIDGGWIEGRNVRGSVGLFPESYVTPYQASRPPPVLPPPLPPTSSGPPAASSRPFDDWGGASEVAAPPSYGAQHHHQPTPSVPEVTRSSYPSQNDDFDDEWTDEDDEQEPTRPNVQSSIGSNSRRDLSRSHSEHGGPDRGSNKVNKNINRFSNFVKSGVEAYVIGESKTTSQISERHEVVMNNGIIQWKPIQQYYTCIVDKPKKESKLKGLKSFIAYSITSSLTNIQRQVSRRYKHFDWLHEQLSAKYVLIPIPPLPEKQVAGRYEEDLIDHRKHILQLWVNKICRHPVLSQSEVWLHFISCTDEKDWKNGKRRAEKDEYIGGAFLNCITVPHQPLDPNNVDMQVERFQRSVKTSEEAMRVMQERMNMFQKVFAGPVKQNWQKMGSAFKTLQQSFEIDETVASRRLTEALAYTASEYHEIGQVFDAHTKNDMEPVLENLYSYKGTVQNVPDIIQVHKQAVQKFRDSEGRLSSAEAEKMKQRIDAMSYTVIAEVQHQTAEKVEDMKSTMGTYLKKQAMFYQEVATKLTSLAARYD

[6] = target: T6, GST-fused intracellular region of CED-1 (CED-1C, amino acids 933–1111) (C. elegans) (UniProt Q9XWD6); assay: as above
T6 sequence: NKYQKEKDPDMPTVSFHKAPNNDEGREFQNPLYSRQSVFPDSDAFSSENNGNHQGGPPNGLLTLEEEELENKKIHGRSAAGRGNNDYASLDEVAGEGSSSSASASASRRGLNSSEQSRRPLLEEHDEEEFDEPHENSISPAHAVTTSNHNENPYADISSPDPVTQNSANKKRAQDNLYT

[7] = target: T7, GST-fused CED-9 (C. elegans) (UniProt P41958); assay: as above
T7 sequence: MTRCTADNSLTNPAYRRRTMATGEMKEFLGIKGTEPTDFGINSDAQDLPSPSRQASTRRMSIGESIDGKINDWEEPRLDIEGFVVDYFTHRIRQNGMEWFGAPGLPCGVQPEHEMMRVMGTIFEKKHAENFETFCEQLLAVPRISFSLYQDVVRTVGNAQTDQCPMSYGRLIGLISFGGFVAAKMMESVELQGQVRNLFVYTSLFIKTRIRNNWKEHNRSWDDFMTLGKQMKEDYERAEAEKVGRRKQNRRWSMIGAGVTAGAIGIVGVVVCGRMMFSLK

binding [1]: binds | binding [2]: binds
B1: APA-2::GFP (protein, UniProt Q22601 1-925)
chain: MPAVKGDGMRGLAVFISDIRNCKSKEAELKRINKELANIRSKFKGDKTLDGYQKKKYVCKLLFIFLLGNDIDFGHMEAVNLLSSNKYTEKQIGYLFISVLIEQQSDLMKLIVQGIRNDLTSRNPVHVNLALQCISNMGSREMVEAFCTDLPKLLVSGETIDFVKQSAALCILKLFRNSPDSFQPGDYASRIVHLLNDSHMGVVTSAASLIEALSKKWPEEYKGAVPLAISRLSRIVTATYTDLQDYTYYFVPAPWLCVKLLRLLQNYPPPDDPSNKARLLECLEGILNKAQDAPKSKKVQHSNAKNAVLFEAIALIIHMDSEPQLLVRACNQLGTFLSHRETNLRYLALESMCLLATSEFSHDAVKKHQDTIINSLKTERDVSVRQRAVDLLYAMCDRSNANQIVAEMLAYLETADYSIREEMVLKVAILAEKYATDYTWYVDVILKLIRIAGDYVSEEVWYRVIQIVVNREDVQGYAAKTVFEALQRPACHENMVKVGGYILGEFGNFIAGDERSTAKIQFELLHSKFHLCSITTRCLLLTTYIKFCNLFPEIKPLVQQVFQTDHNLRNPDAELQQRSIEYLQMTKLASNDVLATILEVMPAFAEKESSLLAKLKKSKPQLEEIEREEKEKRSKPTAVMSEGSTSLVDFDSTNDTTASLADVFANNSGTGLGAQGDEVEIANKDDYLKFVTKSNAILWEDDYIQIGCKLETRNNLGRLGMFYGNKTSQPFNKFTPIITCPGALAVQLQAQAKPVEPVVAAGTQVQQLINFVCVQEFQKMPIMNIKFTFTDRAGAVQNFDKNFYLPLFISKFFEPTNMTSEQFFTRWKSLGAASQEAQKIFNALSPIEHATIESRLKGFGANLLTDVDPNPDNYVCAGIIHTQTQQIGTLIRLEPNKQAKMYRLTIRSSKDTVVQTLVDLLGNQF

binding [3]: binds | binding [4]: binds | binding [5]: binds | binding [6]: no binding | binding [7]: no binding
B2: ^35S-labeled DPY-23 (protein, UniProt P35603 1-441)
chain: MIGGLFVYNHKGEVLISRIYRDDVTRNAVDAFRVNVIHARQQVRSPVTNMARTSFFHVKRGNVWICAVTRQNVNAAMVFEFLKRFADTMQSYFGKLNEENVKNNFVLIYELLDEILDFGYPQNTDPGVLKTFITQQGVRTADAPVPVTKEEQSQITSQVTGQIGWRREGIKYRRNELFLDVIEYVNLLMNQQGQVLSAHVAGKVAMKSYLSGMPECKFGINDKITIEGKSKPGSDDPNKASRAAVAIDDCQFHQCVKLTKFETEHAISFIPPDGEYELMRYRTTKDIQLPFRVIPLVREVSRNKMEVKVVVKSNFKPSLLAQKLEVRIPTPPNTSGVQLICMKGKAKYKAGENAIVWKIKRMAGMKESQISAEIDLLSTGNVEKKKWNRPPVSMNFEVPFAPSGLKVRYLKVFEPKLNYSDHDVIKWVRYIGRSGLYETRC
modifications: 35S-labeled

binding [2]: binds
B3: endogenous CED-6 (protein, UniProt O76337 1-492)
chain: T1 sequence
